Over roughly 33,000 sequences, “E-score (-0.5 to 0.5)” has its median near -0.016; the highest 2% begin near 0.32. The list shows a part of the results.
The sequences below were run against T1, Stp1 (UniProt B3LFK1) (assay: PBM E-score (8-mer binding enrichment) (E-score (-0.5 to 0.5)); higher = stronger / more preferred TF binding; most listed sequences are background and not binding sites). Conditions: protein concentration: 200 nM; construct: GST-full length.
T1 sequence: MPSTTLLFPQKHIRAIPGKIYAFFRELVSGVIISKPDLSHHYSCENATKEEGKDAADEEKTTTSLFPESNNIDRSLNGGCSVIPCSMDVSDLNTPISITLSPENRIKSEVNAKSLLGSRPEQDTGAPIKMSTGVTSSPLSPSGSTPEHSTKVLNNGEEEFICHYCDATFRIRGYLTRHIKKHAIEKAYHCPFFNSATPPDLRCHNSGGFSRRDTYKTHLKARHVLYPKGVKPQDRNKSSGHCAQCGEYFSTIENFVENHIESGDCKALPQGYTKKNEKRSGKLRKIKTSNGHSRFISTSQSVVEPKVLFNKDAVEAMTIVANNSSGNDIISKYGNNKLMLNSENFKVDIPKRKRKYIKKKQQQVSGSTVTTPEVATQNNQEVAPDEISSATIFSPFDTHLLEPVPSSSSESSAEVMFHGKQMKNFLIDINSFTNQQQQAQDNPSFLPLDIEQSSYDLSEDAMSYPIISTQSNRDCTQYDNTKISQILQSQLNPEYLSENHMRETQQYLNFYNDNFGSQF
Protocol: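 Universal 'all 10-mer' protein binding microarrays (Agilent AMADID 015681) probed with GST-tagged S. cerevisiae TFs (full-length or DBD) made by in vitro transcription/translation (PURExpress), about 100-200 nM. Bound TF was detected with fluorescent anti-GST. Each ungapped 8-mer (which stands for itself and its reverse complement) is scored by the PBM enrichment score (E-score), a modified Wilcoxon-Mann-Whitney statistic from -0.5 to +0.5, computed with the Universal PBM Analysis Suite. Scale: above 0.35 generally sequence-specific binding.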

Row | Sequence | PBM E-score
1 | CCACTTAC | 0.0552
2 | CTAGCCGC | 0.395
3 | AGATCACA | 0.109
4 | AGGCAGAA | 0.0807
5 | CCCGAAAG | -0.132
6 | CATGTGGC | 0.32
7 | AAGGCTAT | 0.0747
8 | ATTGCAAG | 0.0808
9 | GTTGCTAA | 0.0487
10 | CGATCTAC | -0.0726
11 | CCCTGTGA | -0.138
12 | CCTGTTAC | -0.152
13 | CGAACAGC | -0.164
14 | CTGTGAAG | -0.0819
15 | GGTTCATA | -0.0452
16 | CCCCCCGG | -0.36
17 | AATCAAAC | 0.127
18 | GGAAGTTA | 0.0324
19 | ATTTCCCA | 0.0347
20 | ATAACACG | 0.181
21 | AGGCATCC | -0.0829
22 | ACGATCCC | -0.211
23 | CCAAGCGG | 0.105
24 | GTGGCTAA | 0.244
25 | GGTACTAA | 0.0259

Row | Sequence | PBM E-score
26 | ACAATCGT | -0.176
27 | AAAGGGGG | -0.423
28 | TTGACAAA | 0.229
29 | ACCTGATA | 0.0697
30 | CCCGTTCA | -0.132
31 | CTATATAC | 0.275
32 | CCAACAGG | -0.173
33 | CGGAATTA | 0.0149
34 | CGTCCATA | 0.158
35 | GCGGTATA | -0.00181
36 | GGCCACCA | -0.0479
37 | ACACGAGT | 0.0728
38 | AGAGCAAG | 0.0492
39 | CGCGAGGC | 0.421
40 | AATAGATC | 0.0313
41 | ACTCCGGA | 0.00743
42 | AACGGATA | 0.208
43 | CCAGTCAA | -0.122
44 | AACCTTAT | -0.0729
45 | ACGGGCAC | 0.205
46 | TCTAAAGA | 0.0839
47 | CCTTAGCC | 0.268
48 | AATAATGA | 0.207
49 | GAAAATGA | -0.0591
50 | ATGCGAAT | 0.0664

Row | Sequence | PBM E-score
51 | AGATAGGG | -0.118
52 | CGATAAGC | -0.0171
53 | TGGAGGAA | -0.11
54 | GAATGCAA | -0.0009
55 | ACCGGTAC | -0.287
56 | AGACCAAG | -0.0841
57 | AAGTCATC | -0.159
58 | AGAAGGCC | 0.0514
59 | AAGAACGG | 0.102
60 | AGTCCACT | -0.218
61 | AAGAAGGT | -0.0552
62 | AAAAGTCC | -0.0528
63 | CTACCGCC | -0.0357
64 | CTGCCAAA | -0.0704
65 | CGATTCTA | 0.114
66 | GGGCTCCA | -0.168
67 | CAGGTACA | -0.0186
68 | CATATTCC | -0.14
69 | AAAGCATA | -0.0516
70 | ATCTATAA | 0.0394
71 | GTATGGAA | -0.1
72 | GATAGTCA | -0.0929
73 | GCTCTTAA | 0.132
74 | GGGGTAGA | -0.139
75 | CCTGTGAA | -0.0561

Row | Sequence | PBM E-score
76 | AATAGCTA | -0.131
77 | AACTACAC | 0.102
78 | CCGCCAAA | 0.0147
79 | CCACCCAG | -0.153
80 | TACACAAA | 0.306
81 | GACCAAAA | 0.193
82 | GCGGATAA | 0.276
83 | AACTCAGT | -0.082
84 | GAACCATC | -0.053
85 | CACGCGGA | 0.294
86 | CCCTGACG | -0.16
87 | CCCGGGGC | -0.149
88 | ATGTACAC | -0.0825
89 | GAGCTTAC | -0.0435
90 | AAGTCGCT | -0.206
91 | GGAGGCCC | -0.298
92 | CGCCGGGC | 0.041
93 | CATTAAAA | 0.245
94 | ATGCTAAT | 0.00496
95 | CGTGATGA | 0.0223
96 | GCTAACCA | -0.17
97 | AGCCCTAG | -0.145
98 | TCACCTCA | 0.0111
99 | TATTGTAA | 0.152
100 | CGGCTCAA | 0.351

Row | Sequence | PBM E-score
101 | AGGCCTCC | -0.164
102 | ATTGGCTG | -0.127
103 | GGATTCAC | -0.0343
104 | ATTCGCCA | 0.0506
105 | CTGACCAC | -0.054
106 | GCCAAGAC | -0.167
107 | AAAATCTC | -0.0545
108 | CTTCGAGC | -0.0739
109 | GGTAGCCA | -0.0378
110 | CCCAGGGG | -0.233
111 | ACAAGACT | -0.168
112 | TATCGAGA | -0.0215
113 | AGAGCAGG | -0.078
114 | AAGGCCGC | 0.314
115 | AGATTGGC | -0.21
116 | CCCGCTCC | -0.241
117 | CAGGCACG | 0.174
118 | AAGTTGCG | -0.025
119 | AATGTTGC | 0.119
120 | ATAGCAAT | 0.0963
121 | GGTTGCGA | -0.125
122 | CGGGGTTA | 0.0929
123 | ATGACCAG | -0.16
124 | AGATGAAC | 0.102
125 | ACGTTCGA | -0.028

Row | Sequence | PBM E-score
126 | AAAATGTA | 0.144
127 | GGTGGACA | -0.128
128 | AAATTCGG | 0.045
129 | CTATATCA | 0.191
130 | ATAGAGTG | -0.0347
131 | CTTGATTA | -0.12
132 | GAAAGACC | -0.321
133 | CGACTCTC | -0.16
134 | ACGGTTCG | -0.00398
135 | GCTAGAGA | -0.00314
136 | GAGATGAA | -0.105
137 | AAAATAGG | 0.0621
138 | CCGGCGCC | 0.367
139 | CTTTCATA | 0.134
140 | GTGACAAC | -0.0855
141 | AAGCCTCC | -0.0554
142 | CTGTGTAA | 0.0786
143 | TAGGGAAA | -0.00281
144 | AATCATAT | 0.145
145 | CAGGATAC | 0.0291
146 | GTCTGGCA | -0.185
147 | AACTTAGG | -0.132
148 | TCAACTAA | 0.147
149 | GACGTTAA | 0.0757
150 | AGAGTAAC | -0.0837

Row | Sequence | PBM E-score
151 | ACGATAGG | -0.0773
152 | CTTAGGAA | 0.0134
153 | GAGACGAC | -0.104
154 | CAAATTAC | -0.0375
155 | CCATACAA | 0.0696
156 | AAAAATCA | 0.139
157 | GTTCAGGA | 0.0369
158 | CCGAAAAA | 0.223
159 | AGGTGTCA | 0.0452
160 | TGTTCAAA | 0.146
161 | GGGTGCGA | -0.279
162 | GCGTTAGC | 0.0922
163 | CACTTTCC | -0.224
164 | ACCCGAAG | -0.183
165 | ATCATAGG | -0.0255
166 | AACAATCA | 0.139
167 | CAATCACA | -0.0178
168 | ATGAATTC | 0.188
169 | AAACCCAA | 0.0522
170 | TGTGTAAA | 0.228
171 | ACCGTAGT | -0.0388
172 | CCGTACAG | 0.235
